# Reference: PubChem BioAssay AID463173 (ICCB-Longwood Screening Facility, Harvard Medical School, 2010)
# The whole screen tested about 52,000 compounds, of which about 4,300 (8.3%) were called active. Cut-off read from the data, not from the text of the source: active = survival mostly below about 52% (no sharp cut-off); inactive = mostly above about 56%. The list shows a part of the results.
# Tested on: DeltatarO mutant
# Assay: S. aureus survival, RN4220 and DeltatarO strains – OD600, teichoic acid synthesis inhibitors, primary screen (AID 463173)
# Conditions: S. aureus RN4220 wild type/DeltatarO growth, OD600, 18 h, stronger effect = lower value, screened at 18.75 µg/mL (by protocol)
row,Compound,survival
1,COc1ccccc1NC(=O)CSc1nc2c(oc3ccccc32)c(=O)n1-c1ccccc1F,inactive: 79%
2,Cc1cc2oc(C(=O)N(Cc3ccc(N(C)C)cc3)CC3CCCO3)c(C)c2cc1Cl (stereo not given),inactive: 65%
3,COc1ccc(NC(=O)c2oc3ccccc3c2NC(=O)c2cc(C)cc(C)c2)c(OC)c1,inactive: 100%
4,CCOC(=O)C1CCN(c2nc3ccccc3nc2Cl)CC1,active: -24%
5,COc1ccc(NC(=O)C2CCN(C(=O)c3sc4nc[nH]c(=O)c4c3C)CC2)cc1Cl,inactive: 77%
6,CN(CC(=O)Nc1ccc(Br)cc1)S(=O)(=O)c1cccc2nsnc12,inactive: 80%
7,O=C(NC1CCCC1)C(c1ccccc1)N(Cc1ccccc1F)C(=O)c1ccco1 (stereo not given),inactive: 102%
8,CCC(c1nnnn1C(C)(C)CC)N1CCN(c2ccccc2)CC1 (stereo not given),inactive: 114%
9,COC(=O)c1ccc2c(=O)n3nc(Nc4cc(OC)ccc4OC)sc3nc2c1,inactive: 97%
10,Cc1ccccc1NC(=O)CSC1=Nc2ccccc2C2=NC(Cc3ccccc3)C(=O)N12 (stereo not given),inactive: 84%
11,Cc1ccc(OCc2nc(C#N)c(NCCc3ccccc3)o2)cc1,active: 35%
12,CCC(Sc1ncc(S(=O)(=O)c2ccc(Cl)cc2)c(=O)[nH]1)C(=O)Nc1ccc(OC)cc1 (stereo not given),inactive: 89%
13,COc1ccc(Cl)cc1NC(=O)CSc1nnc2[nH]c(=O)cc(-c3ccccc3)n12,inactive: 85%
14,Cc1ccc2[nH]c(=O)c3cc(C(=O)N(CCCOC(C)C)Cc4ccco4)sc3c2c1,active: 56%
15,Cc1ccc(N(C(=O)c2ccco2)C(C(=O)NC2CCCC2)c2ccc(N(C)C)cc2)c(C)c1 (stereo not given),inactive: 93%
16,Cc1cc(C)c(NC(=O)C(=O)NCC(c2cccnc2)N2CCN(c3ccccc3F)CC2)c(C)c1 (stereo not given),inactive: 58%
17,CC(=O)Nc1cccc(NC(=O)CSc2nccn2C2CCCC2)c1,inactive: 78%
18,O=C(CN1C(=O)c2cccc3cccc1c23)Nc1cccc(F)c1,inactive: 57%
19,C=Cc1ccc(Cn2c(C)c(CNCc3ccc(SC)cc3)c(C(=O)O)c2C)cc1,inactive: 69%
20,CN(Cc1ccccc1)c1ccc(-c2nc(-c3ccccc3)no2)cc1[N+](=O)[O-],inactive: 69%
21,CCOc1ccc(CCNC(=O)Cn2ccc3cc(S(=O)(=O)N4CCCCC4)ccc32)cc1,inactive: 102%
22,CCOc1ccc2[nH]c(=O)c(CN(CCO)C(=O)Nc3ccc(OC)cc3)cc2c1,inactive: 92%
23,CCN(CCCNC(=O)c1cc(Nc2ccc(OC)cc2)nc2ccccc12)c1cccc(C)c1,inactive: 91%

row,Compound,survival
1,Cc1ccc(Cl)cc1NC(=O)Nc1cn(CC(C)C)c(=O)c2ccccc12,inactive: 59%
2,Cc1ccccc1CN1C(=O)c2ccccc2Sc2ccc(C(=O)NCc3ccccc3)cc21,active: 37%
3,O=C(Nc1ccccc1F)c1nc(SCc2ccccc2F)ncc1Cl,inactive: 73%
4,COc1cccc(CNC(=O)c2ccc3c(c2)N(Cc2ccc(F)cc2Cl)C(=O)c2ccccc2S3)c1,active: 25%
5,COc1ccc(-c2nn(-c3ccc(F)cc3)c3c2cnc2ccc(F)cc23)cc1OC,inactive: 76%
6,Cc1ccc(NC(=O)CCCn2c(=O)c3cccn3c3ccccc32)cc1Cl,inactive: 68%
7,CCCc1nn2c(=O)cc(COC(=O)C3CCCCC3)nc2s1,inactive: 81%
8,COc1ccc(OCC(=O)Nc2ccc(Cl)c(-c3nc4ncccc4o3)c2)cc1,inactive: 155%
9,COC(=O)c1cc2sc(Cl)cc2n1CC(=O)Nc1cc(OC)cc(OC)c1,inactive: 84%
10,O=C1CN(C(=O)COc2ccccc2)C(c2ccc(F)cc2)c2cc(Br)ccc2N1 (stereo not given),active: 33%
11,N#CCCn1nc(-c2ccccc2)c2ccccc2c1=O,inactive: 67%
12,COC(=O)c1ccccc1NC(=O)c1oc2ccc3c(c2c1C)C(=O)CC(C)(C)O3,inactive: 80%
13,O=C(NCc1nc2ccccc2n1Cc1ccccc1Cl)c1ccccc1,inactive: 97%
14,O=c1c2c3c(sc2ncn1CCn1cnc2sc4c(c2c1=O)CCCC4)CCCC3,inactive: 88%
15,CCOC(=O)c1ccccc1NC(=O)c1cnn(-c2ccc(OC)cc2)c1C1CCN(C(=O)OC(C)(C)C)CC1,inactive: 92%
16,Cc1ccc2c(c1)c(=O)c1ccccc1n2CCCC(=O)Nc1ccc(Cl)cc1C,active: 45%
17,CCOc1ccc(CNC(=O)c2cnc3c(C)cccn3c2=O)cc1,inactive: 80%
18,Cc1cccc(C)c1NC(=O)Cn1c(=O)n(Cc2ccccc2Cl)c(=O)c2cccnc21,inactive: 97%
19,Cc1ccc(-c2nc(S(=O)(=O)c3ccc(C)cc3)c(SCC(=O)c3ccccc3)o2)cc1,inactive: 52%
20,O=C(CN1CCOCC1)NNc1nc(-c2ccccc2)c2cc(Cl)ccc2n1,inactive: 81%
21,CCN(C(=O)CSc1nc2ccccc2n1Cc1ccccc1C#N)c1ccccc1,inactive: 82%
22,CCOC(=O)c1ccc(NC(=O)CSc2nnc(-c3ccncc3)n2-c2ccccc2)cc1,inactive: 83%
23,Cc1ccc2c(C)c(C(=O)NCC(c3ccc(Cl)cc3)N3CCOCC3)oc2c1 (stereo not given),inactive: 63%

row,Compound,survival
1,COc1cc(NC(=O)C2CCN(c3nnc(C)c4c(C)n(-c5ccccc5)nc34)CC2)cc(OC)c1,inactive: 87%
2,Cc1ccc(NC(=O)NC(C)c2c(-n3cccc3)sc(C)c2C)cc1F (stereo not given),inactive: 64%
3,Cc1ccc(-n2c(=O)[nH]c3cc(C(=O)NCCc4ccccc4)ccc3c2=O)cc1,inactive: 83%
4,CCN(CC)C(=O)c1ccccc1NC(=O)c1cccc(S(=O)(=O)N2CCC(C)CC2)c1,inactive: 88%
5,CCOc1ccc(CCNC(=O)c2nn(-c3ccc(OC)cc3)c(=O)c3c2c2ccccc2n3C)cc1OCC,inactive: 97%
6,O=C(O)CCc1ccc(-c2ccc(Cl)cc2)n1-c1cccc(C(F)(F)F)c1,active: 23%
7,CCOC(=O)c1cnc(NCc2ccc(Cl)cc2)c2ccccc12,inactive: 91%
8,Cc1ccc2[nH]c3c(=O)n(CC(=O)N(C)Cc4ccccc4)ncc3c2c1,active: -1%
9,O=C(Cc1ccc(F)cc1)NCCc1csc(-c2ccc(C(F)(F)F)cc2)n1,inactive: 92%
10,Cn1c(CN2CCCCC2)nc2cc(NC(=O)c3ccc(Cl)cc3)ccc21,inactive: 135%
11,COc1cccc(CNC(=O)c2ccc(CS(=O)Cc3ccc(Cl)cc3)o2)c1 (stereo not given),inactive: 69%
12,N#Cc1cc2c(=O)n3ccccc3nc2n(-c2nnc(SCc3ccccc3)s2)c1=O,inactive: 96%
13,Cc1ccc(C(=O)CSc2nnc3ccc4ccccc4n23)cc1,inactive: 60%
14,CCC(C)(C)NC(=O)c1ccc2c(c1)N(CC#N)C(=O)C(C)(C)O2,inactive: 94%
15,Cn1nnc2cc(C(=O)N3CCSCC3)ccc21,inactive: 84%
16,Cc1ccc(NC(CNS(=O)(=O)c2ccc(Cl)cc2)c2ccccc2)cc1 (stereo not given),inactive: 74%
17,Cc1ccc(CNC(=O)C2CCN(c3ncnc4c3nc3n4CCCCC3)CC2)cc1,inactive: 77%
18,CCC(=O)N1c2ccc(S(=O)(=O)N3CCN(c4ccccc4Cl)CC3)cc2CC1C (stereo not given),inactive: 79%
19,Cc1nn(C)c(C)c1NC(=O)CSc1nccc(-c2ccc(Cl)cc2)n1,inactive: 91%
20,Cc1cccc(N(C)c2nc3ccc(C)cc3n3nnnc23)c1,inactive: 68%
21,CCOC(=O)C1CCCN(S(=O)(=O)c2cc(-c3cc(C)no3)ccc2C)C1 (stereo not given),inactive: 76%
22,S=c1nc(C2CC2)[nH]c2ccccc12,inactive: 72%
23,O=C(CSc1nc2ccccc2s1)N=Nc1c(O)n(CN2CCCC2)c2ccccc12,inactive: 75%

row,Compound,survival
1,O=C(NC1CCCCC1)/C(=C/c1ccc(Cl)cc1)NC(=O)c1ccccc1,inactive: 76%
2,CCN1CCOC(=O)C1CC(=O)Nc1cc(Cl)ccc1OC (stereo not given),inactive: 50%
3,CCOC(=O)c1c(NC(=O)/C=C/c2ccc(OCC)cc2)sc2c1CCC2,inactive: 145%
4,CCCCn1c(=O)c2oc3ccccc3c2n(CC(=O)Nc2ccccc2OC)c1=O,inactive: 97%
5,Cc1ccc(CNC(=O)Cn2cc(C(=O)c3ccc(Cl)cc3)c(=O)c3ccc(C)nc32)cc1,inactive: 84%
6,Cc1cccc(C)c1Nc1c(-c2ccccc2O)nc2ncccn12,inactive: 82%
7,Cc1ccccc1CNC(=O)c1ccc2c(c1)N(Cc1ccccc1)CCS2,inactive: 79%
8,CC(=O)N(Cc1cc2cc(C)ccc2nc1Cl)C1CCCC1,inactive: 64%
9,O=C(CCCn1c(=O)c2cccn2c2cccnc21)Nc1ccccc1Br,inactive: 98%
10,O=c1oc2ccc3ccccc3c2cc1-c1nnc(Nc2cccc(F)c2)s1,inactive: 83%
11,Cc1cnc(C(=O)Nc2ccc(C(=O)N(C)C3CCCCC3)cc2)cn1,inactive: 111%
12,O=C(OCC1CCCO1)c1ccc2c(c1)N(Cc1ccccc1F)C(=O)c1ccccc1S2(=O)=O (stereo not given),inactive: 98%
13,CCOc1ccccc1NC(=O)CSc1nccn1Cc1ccc(F)cc1,inactive: 70%
14,Cc1ccc(-n2c(=O)c3ccc(C(=O)NCc4ccccc4Cl)cc3n(CC(N)=O)c2=O)cc1,inactive: 74%
15,CCOc1nc(Nc2ccc(OC)cc2)nc(N2CCOCC2)n1,active: 70%
16,Cc1ccccc1C(=O)Nc1ccc(C(=O)OCc2cc(=O)n3c4c(sc3n2)CCCC4)cc1,inactive: 118%
17,Cc1cccc(CNC(=O)c2cnc3sc(N4CCOCC4)nn3c2=O)c1,inactive: 105%
18,O=C1/C(=C/c2ccccc2O)CC/C1=C\c1ccccc1O,active: 55%
19,CCc1ccc(C2=C(C)C(N3CCC(C(=O)NCc4ccc(C)o4)CC3)=NS2(=O)=O)cc1,inactive: 88%
20,Cc1ccc(S(=O)(=O)N2CCCc3cc(NC(=O)c4c(F)cccc4F)ccc32)cc1,inactive: 73%
21,Cc1nn(CC(=O)NCc2ccccc2Br)c(=O)c2cc3occc3n12,inactive: 132%
